Laboratory results from PubChem BioAssay (NCATS).
Several values for one entry are separate records, joined by “and”; a condition that tells them apart may be missing. Equal entries are not always repeated. Inconclusive results, whose numbers are uncertain, are shown with a selection of clear calls. For part of these data: Potencies beside an inconclusive call are fits to weak or partial responses and may not hold up. Activity calls are given as the source filed them. Calls come from the whole dose curve; as a rule, active = well fitted curve in the direction sought with a large enough effect; inconclusive = small, poorly fitted or top-dose-only effect, or another doubt; inactive = no such curve, though single readings can be large; an effect the other way counts as inactive or inconclusive.

How the values were obtained:
[1] = Primary qHTS for inhibitors of nuclear receptor binding SET domain protein 2 (NSD2) in an isogenic RCH-ACV NSD2 p.E1099K mutant (9B) (AID 1645876); note: nearly all actives have a fitted effect of over 70% in size
[2] = Primary qHTS for inhibitors of nuclear receptor binding SET domain protein 2 (NSD2) in an RCH-ACV wild type WT cells (2C) (AID 1645877); details: activity change, negative = cell killing: at 44.9 µM (top of the series); note: nearly all actives have a fitted effect of over 70% in size
CRL-7250 = normal cell line; assay: Cytotoxic Profiling of Annotated Libraries Using Quantitative High-Throughput Screening (AID 1296008); details: Five cell lines viability, CellTiter-Glo ATP luminescence, 48-72 h; max response: stronger effect = lower value; note: nearly all actives have a fitted effect of over 60% in size; for max response: % is set by controls: 0 for no effect and ±100 for the full control effect
Method in brief: (§1)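 Cytotoxicity was measured as CellTiter-Glo ATP luminescence, read after 10 min at room temperature. Compound treatment of the cells lasted 48 or 72 hr at 37 degrees Celsius in a qHTS format.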

HEK293 = assay: as above; details: Five cell lines viability, CellTiter-Glo ATP luminescence, 48-72 h; max response: stronger effect = lower value
Method in brief: as §1

NIH3T3 = assay: as above; details: Five cell lines viability, CellTiter-Glo ATP luminescence, 48-72 h; max response: stronger effect = lower value
Method in brief: as §1

C33A = assay: Primary qHTS to identify gynecologic anti-cancer compounds using libraries of approved drugs and bioactive compounds (AID 1345084); details: Gynecologic cancer cell panel viability, ATPlite luminescence, 48 h; series mostly up to 57.5 µM; note: nearly all actives have a fitted effect of over 55% in size; for activity change, negative = cytotoxicity: % is set by controls: 0 for no effect and ±100 for the full control effect
Method in brief: (§2)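 Measured: luminescence after ATPlite addition (15 min, RT). Exposure: 48 h, 37 C, 5% CO2.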

CAOV3 = assay: as above; details: Gynecologic cancer cell panel viability, ATPlite luminescence, 48 h; series mostly up to 57.5 µM
Method in brief: as §2

CASKI = assay: as above; details: Gynecologic cancer cell panel viability, ATPlite luminescence, 48 h; activity change, negative = cytotoxicity: at 57.5 µM (top of the series)
Method in brief: as §2

Es-2 = assay: as above; details: Gynecologic cancer cell panel viability, ATPlite luminescence, 48 h; series mostly up to 57.5 µM
Method in brief: as §2

Hek293T = assay: as above; details: Gynecologic cancer cell panel viability, ATPlite luminescence, 48 h, control line for the selectivity index; series mostly up to 57.5 µM
Method in brief: as §2

SKOV3 = assay: as above; details: Gynecologic cancer cell panel viability, ATPlite luminescence, 48 h; series mostly up to 57.5 µM
Method in brief: as §2

[3] = P-glycoprotein substrates identified in KB-8-5-11 adenocarcinoma cell line, qHTS therapeutic library screen (AID 1346987); note: nearly all actives have a fitted effect of over 65% in size
Method in brief: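 Luminescence from CellTiter-Glo, read 5 min after addition, quantified survival of KB-8-5-11 (P-gp-overexpressing) cells exposed to compounds for 72 h. AC50 was derived from concentration-response curves.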

JEG-3 = assay: Primary qHTS to identify gynecologic anti-cancer compounds using libraries of approved drugs and bioactive compounds (AID 1345084); details: Gynecologic cancer cell panel viability, ATPlite luminescence, 48 h; series mostly up to 57.5 µM; note: nearly all actives have a fitted effect of over 55% in size; for activity change, negative = cytotoxicity: % is set by controls: 0 for no effect and ±100 for the full control effect
Method in brief: as §2

OV90 = assay: as above; details: Gynecologic cancer cell panel viability, ATPlite luminescence, 48 h; series mostly up to 57.5 µM
Method in brief: as §2

Tov-21-G = assay: as above; details: Gynecologic cancer cell panel viability, ATPlite luminescence, 48 h; activity change, negative = cytotoxicity: at 57.5 µM (top of the series)
Method in brief: as §2

Tov112D = assay: as above; details: Gynecologic cancer cell panel viability, ATPlite luminescence, 48 h; activity change, negative = cytotoxicity: at 57.5 µM (top of the series)
Method in brief: as §2

PA-1 = assay: as above; details: Gynecologic cancer cell panel viability, ATPlite luminescence, 48 h; series mostly up to 57.5 µM
Method in brief: as §2

KB-3-1 = assay: Cytotoxic Profiling of Annotated Libraries Using Quantitative High-Throughput Screening (AID 1296008); details: Five cell lines viability, CellTiter-Glo ATP luminescence, 48-72 h; max response: stronger effect = lower value; note: nearly all actives have a fitted effect of over 60% in size; for max response: % is set by controls: 0 for no effect and ±100 for the full control effect
Method in brief: as §1

[4] = tested on: Zika virus NS2B-NS3 protease (unlinked complex); assay: Primary screen GU Rhodamine qHTS for Zika virus inhibitors: Unlinked NS2B-NS3 protease assay (AID 1347159); note: nearly all actives have a fitted effect of over 60% in size
Method in brief: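 Unlinked NS2B/NS3, 25 nM; Rhod110 peptide, 1.5 microM; compounds, up to 114 microM. Reaction run 15 min at RT in 10 mM Tris-HCl pH 8.0, 0.01% Tween 20; kinetic fluorescence change fitted with a 4-parameter Hill model.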
Potency is the fitted concentration of half-maximal effect; tags give direction and shape of the fitted curve.

## CC(C)N=C(N)/N=C(\N)Nc1ccc(Cl)cc1
[1]
  Potency: inconclusive: 29.9 µM [inhibitor, single point]
[2]
  Potency: inconclusive: 18.8 µM [inhibitor, single point]
CRL-7250
  Potency: inconclusive: 23.7 µM [inhibitor, single point]
HEK293
  Potency: inconclusive: 29.9 µM [inhibitor, single point]
NIH3T3
  Potency: inconclusive: 7.5 µM [inhibitor, partial curve]
C33A
  Potency: inconclusive: 10 µM [cytotoxic, partial curve, poor fit]
CAOV3
  Potency: inconclusive: 39.8 µM [cytotoxic, single point]
CASKI
  Potency: inconclusive: 12.6 µM [cytotoxic, partial curve]
Es-2
  Potency: inconclusive: 22.4 µM [cytotoxic, single point]
Hek293T
  Potency: inactive
SKOV3
  Potency: active: 28.2 µM

## CCn1nnc2c(N3CCOCC3)nc(-c3ccc(NC(=O)Nc4ccc(C(=O)N5CCN(C)CC5)cc4)cc3)nc21
[3]
  Potency: inconclusive: 18.7 µM [inhibitor, partial curve] and inconclusive: 18.4 µM [inhibitor, partial curve]
CRL-7250
  Potency: inconclusive: 0.0053 µM [inhibitor, full curve, poor fit]
HEK293
  Potency: inconclusive: 9.3 nM [inhibitor, full curve, poor fit] and active: 206 nM
NIH3T3
  Potency: inconclusive: 93.5 nM [inhibitor, full curve, poor fit] and active: 517 nM
CAOV3
  Potency: active: 0.316 µM
CASKI
  Potency: active: 0.251 µM
Hek293T
  Potency: active: 0.631 µM
JEG-3
  Potency: inconclusive: 1.78 µM [cytotoxic, full curve, poor fit]
OV90
  Potency: inconclusive: 0.282 µM [cytotoxic, full curve, poor fit]
SKOV3
  Potency: active: 0.316 µM
Tov-21-G
  Potency: active: 0.224 µM
Tov112D
  Potency: inconclusive: 0.251 µM [cytotoxic, full curve]

## Nc1cccc2c(N)cccc12
CRL-7250
  Potency: inconclusive: 1.72 µM [inhibitor, full curve, poor fit]
HEK293
  Potency: active: 34.4 µM
NIH3T3
  Potency: inconclusive: 24.3 µM [inhibitor, single point]
C33A
  Potency: inconclusive: 50.1 µM [cytotoxic, partial curve, poor fit]
CAOV3
  Potency: inconclusive: 70.8 µM [cytotoxic, single point]
CASKI
  Potency: inconclusive: 63.1 µM [cytotoxic, single point]
JEG-3
  Potency: inconclusive: 63.1 µM [cytotoxic, single point]
OV90
  Potency: active: 20 µM
PA-1
  Potency: inconclusive: 35.5 µM [cytotoxic, partial curve, poor fit]
SKOV3
  Potency: inconclusive: 39.8 µM [cytotoxic, single point]
Tov-21-G
  Potency: inconclusive: 20 µM [cytotoxic, partial curve]
Tov112D
  Potency: inconclusive: 22.4 µM [cytotoxic, partial curve]

## CC(=O)OC1CC(O)(C(C)C)C2C(OC(=O)c3ccc(O)cc3)C=C(C)C(=O)CC12C (stereo not given)
[3]
  Potency: inconclusive: 8.93 µM [inhibitor, single point]
[1]
  Potency: inconclusive: 12.6 µM [inhibitor, single point]
[2]
  Potency: inconclusive: 14.2 µM [inhibitor, single point]
CRL-7250
  Potency: inconclusive: 14.2 µM [inhibitor, partial curve, poor fit]
HEK293
  Potency: inconclusive: 8.93 µM [inhibitor, single point]
KB-3-1
  Potency: inconclusive: 10 µM [inhibitor, single point]
OV90
  Potency: inconclusive: 7.94 µM [cytotoxic, partial curve, poor fit]

## Cc1ccc(C2(COC(=O)C(C)C)CO2)c(OC(=O)C(C)C)c1 (stereo not given)
[3]
  Potency: inconclusive: 12.8 µM [inhibitor, single point]
[1]
  Potency: inconclusive: 20.1 µM [inhibitor, single point]
[2]
  Potency: inconclusive: 16 µM [inhibitor, single point]
CRL-7250
  Potency: inconclusive: 20.2 µM [inhibitor, single point]
HEK293
  Potency: inconclusive: 11.4 µM [inhibitor, single point]
KB-3-1
  Potency: inconclusive: 12.8 µM [inhibitor, single point]
OV90
  Potency: inactive

## COc1ccc(C#Cc2ccc(C(=O)N3CCC[C@@H](CO)C3)cc2)cc1
[3]
  Potency: inconclusive: 14.6 µM [inhibitor, single point]
[1]
  Potency: inconclusive: 23 µM [inhibitor, single point]
[2]
  Potency: inconclusive: 23 µM [inhibitor, single point]
CRL-7250
  Potency: inconclusive: 32.6 µM [inhibitor, single point]
HEK293
  Potency: inconclusive: 23.1 µM [inhibitor, single point]
KB-3-1
  Potency: inconclusive: 29.1 µM [inhibitor, single point]

## C=C1/C(=C/C=C2\CCC[C@@]3(C)C2CCC3[C@H](C)/C=C/[C@@H](O)C2CC2)C[C@@H](O)C[C@@H]1O (stereo not given in full)
[4]
  Potency: inconclusive: 20 µM [inhibitor, full curve, poor fit]
[2]
  Potency: inconclusive: 25.8 µM [inhibitor, single point]
CRL-7250
  Potency: inconclusive: 29.1 µM [inhibitor, single point]
HEK293
  Potency: inconclusive: 20.6 µM [inhibitor, single point]
KB-3-1
  max response: inactive: -9.38%
